Measurements as given in PubChem BioAssay AID1347073 (National Center for Advancing Translational Sciences (NCATS), 2019).
About 200 (0.44%) of roughly 45,000 compounds were called active. Roughly 7% stayed inconclusive and do not appear here. Calls come from the whole dose curve; as a rule, active = well fitted activation curve with a large enough effect; inconclusive = small, poorly fitted or top-dose-only effect; inactive = no such curve, though single readings can be large or run the other way. The list shows a part of the results.

experiment: qHTS of TDP-43 Inhibitors: NCGC Sytravon Library Screen; conditions: yeast TDP-43 toxicity rescue, BacTiter-Glo growth, 24 h; series mostly up to 46.1 µM; growth rescue (activation): at the top concentration; note: 0% is about no effect; nearly all actives have a fitted effect of over 55% in size
Summary of the method: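 TDP-43-expressing yeast, pregrown in raffinose, seeded at OD600 0.02 in galactose medium with compound for 24 hr at 30 deg C. Growth read by BacTiter-Glo luminescence, so rescue of toxicity appears as activation.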

SMILES | growth rescue (activation)
COC(=O)c1ccccc1NC(=S)N(Cc1ccc2c(c1)OCO2)Cc1cc2cccc(C)c2[nH]c1=O | inactive: 3.9%
C=CCn1c(C(C)C)nc2ccccc21 | inactive: 1.43%
Cc1ccccc1C(=O)NC1CCN(CC(=O)NCc2ccc(F)cc2)CC1 | inactive: 8.13%
CCCC(C)C(=O)Nc1cc([N+](=O)[O-])ccc1F (stereo unspecified) | inactive: 22.6%
O=C(Cn1nnc(-c2ccccc2NC(=O)c2ccccc2F)n1)NC1CCCC1 | inactive: -5.13%
CCOC(=O)c1cc(NC(=O)Nc2nc3ccccc3s2)c(C)nc1C | inactive: 12.1%
O=C(CCc1nnc(COc2ccccc2)o1)NCc1ccc(Cl)s1 | inactive: 13%
CC(=O)ON1C(C)(C)Cc2noc(N)c2C1(C)C | inactive: 14.7%
Cc1ccc(NC(=O)CN(C)C(=O)c2n[nH]c(=O)c3ccccc23)cc1 | inactive: 1.23%
Cc1ccccc1Cn1c(=O)n(CCCCCC(=O)NCc2ccc3c(c2)OCO3)c(=O)c2sccc21 | inactive: 2.71%
COc1ccc(C2CC(=O)n3c(nc4ccccc43)S2)cc1OC (stereo unspecified) | inactive: 5.73%
O=C(COC(=O)C1=COCCO1)Nc1ccccc1 | inactive: -1.38%
CCC(C)(C)n1nnnc1C(c1cc(OC)ccc1OC)N1CCN(Cc2ccccc2)CC1 (stereo unspecified) | inactive: 5.39%
Cc1ccc(NC(=O)CSc2nccc(=O)[nH]2)c(S(=O)(=O)N2CCOCC2)c1 | inactive: -21.8%
Cc1ccc(S(=O)(=O)Nc2ccc(NC(=O)c3ccc(F)cc3)cc2)cc1 | inactive: -9%
O=C(/C=C/c1ccco1)NC(=S)Nc1cc(-c2nc3ccccc3s2)ccc1Cl | inactive: -6.54%
CCCC(=O)Nc1ccc(NC(=O)c2ccccn2)cn1 | inactive: 25.2%
Nc1ncc2c(n1)-c1ccccc1CC2 | inactive: 20.4%
Cc1n[nH]c(=O)nc1NCc1ccco1 | inactive: 5.99%
C=CCOc1ccccc1CN1CCC(CO)(CCOc2ccccc2)CC1 | inactive: 5.69%
CC(C)Sc1nc2sc3c(c2c(=O)n1-c1ccccc1)CCCC3 | inactive: 4.44%
CN(C)S(=O)(=O)c1cc(NC(=O)COC(=O)Cc2ccc(Cl)cc2Cl)ccc1Cl | inactive: -0.874%

SMILES | growth rescue (activation)
CCn1c(=O)c2ccccc2n(CC(=O)NC2CCCCC2)c1=O | inactive: -17.9%
CCOC(=O)C1=C(C)NC(=S)NC1c1ccc(OCC(=O)N2CCCCCC2)c(OC)c1 (stereo unspecified) | inactive: -5.64%
COc1ccc(C2=NOC(C(=O)N(C)Cc3ccccc3)C2)cc1 (stereo unspecified) | inactive: 27.6%
COc1ccc(C(C)=O)cc1COC(=O)c1ccc2ccccc2n1 | inactive: 20.7%
CCCc1c(C(=O)OCC)sc(N)c1C#N | inactive: -26%
O=C(NCc1cccs1)c1ccc2nc([C@@H]3O[C@H](CO)[C@H](O)[C@H](O)[C@H]3O)[nH]c2c1 | inactive: 10%
Cc1nn(CC(=O)Nc2ccc3c(c2)OCCO3)c(C)c1[N+](=O)[O-] | inactive: -5.52%
COC(=O)c1cc(NC(C)=O)ccc1N1CCOCC1 | inactive: 8.24%
COc1cccc(CNC(=O)CCC2CCCN(C(=O)c3csc(C(C)C)n3)C2)c1 (stereo unspecified) | inactive: 4.39%
O=C(N/N=C/c1ccc(O)c2ncccc12)c1cccc(Br)c1 | inactive: -73.5%
CC(=O)Nc1ccc(S(=O)(=O)NCC(=O)OCC(=O)NC23CC4CC(CC(C4)C2)C3)cc1 | inactive: -2.88%
CN(C)CCCNC(=O)c1ccc(/C=N/O)nc1 | inactive: -0.939%
CN(CC(=O)Nc1ccc2c(c1)OCO2)S(=O)(=O)c1cccs1 | inactive: 12.1%
C(=N\Nc1nncc2ccccc12)/c1ccccn1 | inactive: 1.63%
Cc1nnc(SCC(=O)Nc2ccc(C(N)=O)cc2)n1-c1ccccc1 | inactive: -13.6%
COc1ccc(OCC(=O)N(Cc2ccc(C)o2)C2CCS(=O)(=O)C2)cc1 (stereo unspecified) | inactive: 5.06%
O=C(Nc1ccc(F)c(Cl)c1)c1cncs1 | inactive: 18.4%
Cn1c(=O)c2c(ncn2CC(=O)N2CCOCC2)n(C)c1=O | inactive: -2.49%
Cc1c(CC(=O)N2CCN(C(=O)C3COc4ccccc4O3)CC2)c(=O)oc2c(O)c(O)ccc12 (stereo unspecified) | inactive: -0.773%
CN1CCN(CCNC(=O)c2cn(Cc3ccccc3F)nn2)CC1 | inactive: -5.42%
CC/C(=N\NC(=O)CSCc1ccccc1Cl)c1ccc2c(c1)OCCO2 | inactive: 15.1%
CC(=O)Nc1cc(-c2cccc(C(=O)NCCO)c2)cn2c(-c3ccc(F)c(Cl)c3)cnc12 | inactive: 1.99%

SMILES | growth rescue (activation)
Cc1c(C(=O)N2CCN(c3ccc(F)cc3)CC2)sc2ncnc(N3CCN(c4ccccn4)CC3)c12 | inactive: 12.6%
CC(/C=C/C=C/c1ccccc1)=N/NC(=O)C(O)c1ccccc1 (stereo unspecified) | inactive: 7.21%
Cn1ccnc1C1CCCCN1C(=O)c1cc(COc2ccc(F)cc2Cl)on1 (stereo unspecified) | inactive: 4.31%
CC(OC(=O)c1ccc(NS(=O)(=O)c2ccc3[nH]c(=O)[nH]c3c2)cc1)C(N)=O (stereo unspecified) | inactive: 9.89%
COc1ccc(NC(=O)CN2C(=O)C(c3ccc(C)cc3)=NC23CCCCCC3)cc1Cl | inactive: 20.2%
COc1ccc(C2=NN(S(C)(=O)=O)C(c3cccs3)C2)cc1OC (stereo unspecified) | inactive: 16.3%
CCOc1ccc(-n2c(C)cc(/C=N/Nc3nc(C)cc(=O)[nH]3)c2C)cc1 | inactive: 13.2%
Cc1ccc(/C=C/c2nc3sc(C(=O)O)c(C)c3c(=O)[nH]2)cc1[N+](=O)[O-] | inactive: 20.5%
CC1CCCCN1C(=O)CSc1nc2c(c(=O)n(C)c(=O)n2C)n1C (stereo unspecified) | inactive: 9.34%
CC(=O)c1ccccc1NC(=O)COC(=O)CCCN1C(=O)c2cccc3cccc(c23)C1=O | inactive: -17.4%
C(=C\c1ccccc1)/CSc1nc2ncccc2[nH]1 | inactive: 21.2%
Cc1ccccc1NC(=O)NC1(C(=O)NCc2ccco2)CCCCC1 | inactive: 19.6%
CCCc1nc2nc(C)c(NS(=O)(=O)c3ccc(C(C)(C)C)cc3)c(=O)n2[nH]1 | inactive: -3.59%
O=C(COC(=O)CC1CC2CCC1C2)NCc1ccccc1 (stereo unspecified) | inactive: 17.8%
Nc1ccc2nc(SCC(=O)N3CCOCC3)sc2c1 | inactive: 7.66%
CC1=C(C(=O)N2CCOCC2)C(c2c(C)cc(C)cc2C)NC(=S)N1 (stereo unspecified) | inactive: -10.2%
O=C(O)C1CC=CCC1C(=O)N1CCCC1 (stereo unspecified) | inactive: -7.18%
Cc1nnc(N2C(=O)C(O)=C(C(=O)c3ccco3)C2c2cccc([N+](=O)[O-])c2)s1 (stereo unspecified) | inactive: -0.553%
COC(=O)c1ccccc1S(=O)(=O)NNC(=O)c1nn(C)c(=O)c2ccccc12 | inactive: 0.176%
CCC(C)NC(=O)C1c2ccccc2C(=O)N1Cc1ccc(F)cc1 (stereo unspecified) | inactive: 7.25%
CCCOc1ccc(C(=O)Nc2ccc(S(=O)(=O)Nc3onc(C)c3C)cc2)cc1 | inactive: -6.09%
COc1ccccc1Cn1c(=O)c2ccccc2n2c(SCC(=O)N3CCCCC3)nnc12 | inactive: 20.4%

SMILES | growth rescue (activation)
CC(=O)NS(=O)(=O)c1ccc(NC(=O)c2cc3c(=O)n4ccccc4nc3s2)cc1 | inactive: -17.3%
O=C(/C=C/c1ccc(S(=O)(=O)N2CCOCC2)cc1)NC(=S)NCCCn1ccnc1 | inactive: 15.8%
Cc1ccc(NC(=O)COC(=O)/C=C/c2c(C)nn(-c3ccc(F)cc3)c2Cl)cc1F | inactive: 19.4%
CCOc1ccccc1NC(=O)C(NCCN(C)C)c1ccccc1 (stereo unspecified) | inactive: -3.23%
CNc1ncc(C(=O)C(C)(C)C)s1 | inactive: 14.3%
Cc1ccc2nc(C)cc(C(=O)N3CCCC(CO)(Cc4ccccc4C)C3)c2c1 (stereo unspecified) | inactive: -1.2%
O=C(Cn1ncc(Cl)c(Cl)c1=O)N1CCN(S(=O)(=O)c2ccc3ccccc3c2)CC1 | inactive: 2.46%
CN=C1S/C(=C\c2ccc(N3CCOCC3)cc2C)C(=O)N1C | inactive: 31.5%
Cc1csc(NC(=O)c2cc3c(s2)CCC3)n1 | inactive: -24.7%
O=C(c1cc(COc2ccc(F)c(F)c2)on1)N1CCSCC1 | inactive: 37%
Cc1ccc(Cl)cc1NC(=S)N1CCC(c2ccccc2)C1 (stereo unspecified) | inactive: 0.382%
O=C(Nc1ccccc1N1CCCCC1)c1ccc(-c2cc(Cl)ccc2Cl)o1 | inactive: 23.7%
CCOP(=O)(OCC)C(Nc1ccc(F)cc1)c1ccccc1 (stereo unspecified) | inactive: 15.9%
Cn1c(CC(=O)Nc2ccccc2F)nnc1SCC(=O)Nc1ccccc1Br | inactive: -8.12%
CC(=O)c1ccc(N2CC(C)(C)C2=O)cc1 | inactive: 7.66%
Cc1ccc(C(=O)N2CC(=O)NC(=O)C2)cc1 | inactive: -0.212%
O=C(CCn1c2c(c3ccccc31)CCCC2)NNC(=O)c1ccc([N+](=O)[O-])cc1 | inactive: 16.7%
NS(=O)(=O)c1cc(C(=O)NCC2CCCCC2)ccc1Cl | inactive: 3.46%
Clc1cc2c(cc1/C=N/Nc1nc(N3CCOCC3)nc(N3CCOCC3)n1)OCO2 | inactive: 19.1%
Cc1nn(CC(=O)N2CCN(c3ccccc3)CC2)c(C)c1[N+](=O)[O-] | inactive: -0.893%
COc1ccc(C2Nc3cccc4cccc(c34)N2)cc1Br | inactive: 19.5%
O=C(CSc1nc(NS(=O)(=O)c2ccccc2)cc(=O)[nH]1)Nc1ccccc1C(F)(F)F | inactive: 5.3%

SMILES | growth rescue (activation)
CCC(Oc1ccccc1)C(=O)Nc1ccccc1C(=O)N1CCN(C)CC1 (stereo unspecified) | inactive: 17.3%
O=C(COC(=O)CNC(=O)c1ccccc1)Nc1ccc(S(=O)(=O)N2CCCC2)cc1 | inactive: 1.25%
CCOC(=O)c1sc(/N=C/Nc2nc(C)c(C(=O)OCC)s2)nc1C | inactive: -27.6%
CCc1nc2ccc(C(=O)Nc3cccc(OCC(=O)N(C)C)c3)cn2c1N(CCN(C)C)CC1CC1 | inactive: 7.47%
CCN(CC)C(=S)NC(=O)Cc1ccccc1 | inactive: -10.5%
COc1cccc(NC(=O)C(Sc2nnc(-c3ccncc3)n2-c2ccc(Cl)cc2)c2ccccc2)c1 (stereo unspecified) | inactive: 16.8%
Cc1ccc2c(C)c(C(=O)N(C)C(C)c3ccon3)oc2c1C (stereo unspecified) | inactive: 21.1%
COc1ccc(C(=O)C2CCCN(Cc3cccn3-c3ccccn3)C2)cc1F (stereo unspecified) | inactive: 12.3%
CC(=O)Nc1ccc(Oc2ncccn2)c(Cl)c1 | inactive: 6.68%
Cc1noc(C)c1COC(=O)c1ccc(S(=O)(=O)N2CCCCC2)cc1 | inactive: 11.1%
CC(OC(=O)c1ccccn1)C(=O)Nc1nc(-c2ccc(F)c(F)c2)cs1 (stereo unspecified) | inactive: 1.62%
O=C(Nc1ccc(N2CCOCC2)c(S(=O)(=O)Nc2ccccc2Cl)c1)c1ccc(F)cc1 | inactive: 2.14%
CN1C(=S)SC(/[N+]([O-])=C/c2ccc(Cl)cc2)C1(C)C (stereo unspecified) | inactive: 25.1%
Nc1nnc(SCC(=O)Nc2nccs2)s1 | inactive: -17.2%
Cc1ccc(N(CC(O)CN2CCCC2)S(=O)(=O)c2ccc(C)cc2)cc1 (stereo unspecified) | inactive: -2.71%
COc1cccc(CNS(=O)(=O)c2ccc3c(c2)oc(=O)n3C)c1 | inactive: -30.5%
O=C(COc1ccccc1Cl)NCCCNC(=O)c1ccccn1 | inactive: 11.2%
Cc1cnc(NC(=O)CC(C)c2ccccc2)s1 (stereo unspecified) | inactive: 1.61%
